Assay results taken from patent US10093656B2, “Fused-ring or tricyclic aryl pyrimidine compound used as kinase inhibitor” (NANJING SANHOME PHARMACEUTICAL CO., LTD, priority 2015, dated 2018).
Where “and” joins values, the source holds several entries; their conditions need not be identical. Equal values may be shown once. For some of these results: The name of at least one read-out is uncertain. Some entries share one result that the patent states for a list of compounds.

Columns and labels:
[1] = system: human skin squamous cell A431 xenograft (CDX); assay: Selectivity study in vivo, A431 xenograft (CDX) model; parameters: species or system BALB/c nude mice; details: AZD9291 5 mg/kg; for Tumor Volume (mm^3) 3 days: day 3, oral: 17, 30, 37, 38 20 mg/kg once daily; for Tumor Volume (mm^3) 10 days: day 10, oral: 17, 30, 37, 38 20 mg/kg once daily; for Tumor Volume (mm^3) 17 days: day 17, oral: 17, 30, 37, 38 20 mg/kg once daily
Experimental: In this model, the less inhibitory effect on the tumor, the better the selectivity in vivo.
The selective experiments in vivo were performed on BALB/c nude mice that subcutaneously implanted human skin squamous cell A431 xenograft (CDX).
BALB/c nude mice, female, 6-8 weeks, weighted about 18-20 grams, the mice were kept in a special pathogen-free environment and in a single ventilation cage (5 mice per cage). The bedding and water of all the cages were disinfected before use. All animals were free to obtain standard certified commercial laboratory diets. All mice were purchased from mice of Shanghai BK Laboratory Animal Co., LTD for research. The tumor tissue (20-30 mm^3) was implanted subcutaneously in the […] of each mouse for tumor growth. The experiment was started when the average tumor volume reached about 150-200 mm^3. The test compound was orally administered (compounds 17, 30, 37 and 38 were administered once daily at 20 mg/kg, the compound AZD9291 was administered once daily at 5 mg/kg, the compound CO-1686 was administered twice daily at 50 mg/kg, the compound Erlotinib was administered once daily at 75 mg/kg and the compound Afatinib was administered once daily at 7.5 mg/kg, 21 days of continuous administration. The data were shown in Table 4; compounds 33, 34, 40, 42 and 43 were administered once daily at 20 mg/kg and compound AZD9291 was administered once daily at5 mg/kg, 21 days of continuous administration. The tumor volume was measured twice a week with a two-dimensional caliper and the volume was measured in cubic millimeters and calculated by the following formula: V=V=0.5 a×b2, where a and b were the major and minor diameters of the tumor, respectively.

[2] = system: NCI-H1975 lung cancer patient-derived xenograft (CDX); assay: Pharmacodynamics study in vivo, NCI-H1975 xenograft (CDX) model; parameters: species or system BALB/c nude mice; details: day 21, oral daily: compound 30 10 mg/kg, 33, 34, 40, 42, 43 20 mg/kg, AZD9291 5 mg/kg
Experimental: For example, after 21 days of administration, the tumor volume of the representative compounds 30, 33, 34, 40, 42 and 43 decreased from the beginning of about 149 mm^3 to 3-39 mm^3.
The pharmacological experiments in vivo were performed on BALB/c nude mice that subcutaneously implanted NCI-H1975 lung cancer […] xenograft (CDX).
BALB/c nude mice, female, 6-8 weeks, weighted about 18-22 grams, the mice were kept in a special pathogen-free environment, and in a single ventilation cage (5 mice per cage). The bedding and water of all the cages were disinfected before use. All animals were free to obtain standard certified commercial laboratory diets. A total of 100 mice were purchased from Beijing Vital for research. The tumor tissue (20-30 mm^3) was implanted subcutaneously in the […] of each mouse for tumor growth. The experiment was started when the average tumor volume reached about 150-200 mm^3. […] The tumor volume was measured twice a week with a two-dimensional caliper and the volume was measured in cubic millimeters and calculated by the following formula: V=V=0.5 a×b2, where a and b were the major and minor diameters of the tumor, respectively.

[3] = Experiment 1 (Table 4), CO-1686 50 mg/kg twice daily, Erlotinib 75 mg/kg, Afatinib 7.5 mg/kg
[4] = Experiment 1 (Table 4), day 7, oral: 17, 30, 37, 38 20 mg/kg once daily, CO-1686 50 mg/kg twice daily, Erlotinib 75 mg/kg, Afatinib 7.5 mg/kg
[5] = Experiment 1 (Table 4), day 14, oral: 17, 30, 37, 38 20 mg/kg once daily, CO-1686 50 mg/kg twice daily, Erlotinib 75 mg/kg, Afatinib 7.5 mg/kg
[6] = Experiment 1 (Table 4), day 21, oral: 17, 30, 37, 38 20 mg/kg once daily, CO-1686 50 mg/kg twice daily, Erlotinib 75 mg/kg, Afatinib 7.5 mg/kg
[7] = Table 5 experiment, day 7, oral once daily: 33, 34, 40, 42, 43 20 mg/kg
[8] = Table 5 experiment, day 14, oral once daily: 33, 34, 40, 42, 43 20 mg/kg
[9] = Table 5 experiment, day 21, oral once daily: 33, 34, 40, 42, 43 20 mg/kg

| Structure (SMILES) | Tumor Volume (mm^3) 3 days [1, 3] [mm^3] | Tumor Volume (mm^3) 7 days [1, 4] [mm^3] | Tumor Volume (mm^3) 10 days [1, 3] [mm^3] | Tumor Volume (mm^3) 14 days [1, 5] [mm^3] | Tumor Volume (mm^3) 17 days [1, 3] [mm^3] | Tumor Volume (mm^3) 21 days [1, 6] | Tumor Volume (mm^3) 7 days [1, 7] [mm^3] | Tumor Volume (mm^3) 14 days [1, 8] [mm^3] | Tumor Volume (mm^3) 21 days [1, 9] | Tumor Volume (mm^3) 21 days [2] |
| --- | --- | --- | --- | --- | --- | --- | --- | --- | --- | --- |
| C=CC(=O)Nc1cc(Nc2nccc(-c3cn(C)c4ccccc34)n2)c(OC)cc1N(C)CCN(C)C [AZD9291, reference compound] | 280 | 421 | 459 | 545 | 575 | 780 mm^3 | 154 | 277 | 321 mm^3 | – |
| CN(C)C/C=C/C(=O)Nc1cc2c(Nc3ccc(F)c(Cl)c3)ncnc2cc1O[C@H]1CCOC1 [Afatinib, Alfatinib, reference compound] | 216 | 269 | 296 | 390 | 369 | 479 mm^3 | – | – | – | – |
| C=CC(=O)Nc1cccc(Nc2nc(Nc3ccc(N4CCN(C(C)=O)CC4)cc3OC)ncc2C(F)(F)F)c1 [CO-1686, reference compound] | 324 | 557 | 678 | 830 | 1094 | 1307 mm^3 | – | – | – | – |
| C=CC(=O)Nc1cc(Nc2nccc(-c3c4n(c5ccccc35)CCOC4)n2)c(OC)cc1N(C)CCN(C)C [Embodiment 17, N-(5-((4-(3,4-Dihydro-1H-[1,4]oxazino[4,3-a]indol-10-yl)pyrimidin-2-yl)amino)-2-((2-(dimethylamino)ethyl)(methyl)amino)-4-methoxyphenyl)acrylamide] | 228 | 406 | 512 | 610 | 844 | 1201-1434 mm^3 and 1201 mm^3 | – | – | – | – |
| C=CC(=O)Nc1cc(Nc2ncc(F)c(-c3c4n(c5ccccc35)CCOC4)n2)c(OC)cc1N(C)CCN(C)C [Embodiment 30, N-(5-((4-(3,4-Dihydro-1H-[1,4]oxazino[4,3-a]indol-10-yl)-5-fluoropyrimidin-2-yl)amino)-2-((2-(dimethylamino)ethyl)(methyl)amino)-4-methoxyphenyl)acrylamide] | 276 | 537 | 718 | 963 | 1184 | 1201-1434 mm^3 and 1375 mm^3 | – | – | – | – |
| C=CC(=O)Nc1cc(Nc2ncc(F)c(-c3c4n(c5cc(F)ccc35)CCOC4)n2)c(OC)cc1N(C)CCN(C)C [Embodiment 33, N-(2-((2-(Dimethylamino)ethyl)(methyl)amino)-5-((5-fluoro-4-(7-fluoro-3,4-dihydro-1H-[1,4]oxazino[4,3-a]indol-10-yl)pyrimidin-2-yl)amino)-4-methoxyphenyl)acrylamide] | – | – | – | – | – | – | 317 | 618 | 1135-1708 mm^3 and 1221 mm^3 | 3-39 mm^3 |
| C=CC(=O)Nc1cc(Nc2ncc(F)c(-c3c4n(c5cc(Cl)ccc35)CCOC4)n2)c(OC)cc1N(C)CCN(C)C [Embodiment 34, N-(5-((4-(7-Chloro-3,4-dihydro-1H-[1,4]oxazino[4,3-a]indol-10-yl)-5-fluoropyrimidin-2-yl)amino)-2-((2-(dimethylamino)ethyl)(methyl)amino)-4-methoxyphenyl)acrylamide] | – | – | – | – | – | – | 435 | 987 | 1135-1708 mm^3 and 1708 mm^3 | – |
| C=CC(=O)Nc1cc(Nc2nccc(-c3c4n(c5ccc(F)cc35)CCOC4)n2)c(OC)cc1N(C)CCN(C)C [Embodiment 37, N-(2-((2-(Dimethylamino)ethyl)(methyl)amino)-5-((4-(8-fluoro-3,4-dihydro-1H-[1,4]oxazino[4,3-a]indol-10-yl)pyrimidin-2-yl)amino)-4-methoxyphenyl)acrylamide] | 266 | 586 | 763 | 812 | 1130 | 1201-1434 mm^3 and 1345 mm^3 | – | – | – | – |
| C=CC(=O)Nc1cc(Nc2nccc(-c3c4n(c5cc(F)ccc35)CCOC4)n2)c(OC)cc1N(C)CCN(C)C [Embodiment 38, N-(2-((2-(Dimethylamino)ethyl)(methyl)amino)-5-((4-(7-fluoro-3,4-dihydro-1H-[1,4]oxazino[4,3-a]indol-10-yl)pyrimidin-2-yl)amino)-4-methoxyphenyl)acrylamide] | 270 | 573 | 826 | 955 | 1126 | 1201-1434 mm^3 and 1434 mm^3 | – | – | – | – |
| C=CC(=O)Nc1cc(Nc2nccc(-c3cn4c5c(cccc35)OCCC4)n2)c(OC)cc1N(C)CCN(C)C [Embodiment 40, N-(5-((4-(3,4-Dihydro-2H-[1,4]oxazepino[2,3,4-hi]indol-7-yl)pyrimidin-2-yl)amino)-2-((2-(dimethylamino)ethyl)(methyl)amino)-4-methoxyphenyl)acrylamide] | – | – | – | – | – | – | 316 | 672 | 1135-1708 mm^3 and 1135 mm^3 | – |
| C=CC(=O)Nc1cc(Nc2nccc(-c3cn4c5c(cccc35)OC3(CC3)C4)n2)c(OC)cc1N(C)CCN(C)C [Embodiment 42, N-(5-((4-(3H-Spiro[[1,4]oxazino[2,3,4-hi]indole-2,1′-cyclopropan]-6-yl)pyrimidin-2-yl)amino)-2-((2-(dimethylamino)ethyl)(methyl)amino)-4-methoxyphenyl)acrylamide] | – | – | – | – | – | – | 314 | 534 | 737 mm^3 | – |
| C=CC(=O)Nc1cc(Nc2nccc(-c3cn4c5c(cccc35)OC3(CC3)C4)n2)c(OC)cc1N(C)CC(C)(C)N(C)C [Embodiment 43, N-(5-((4-(3H-Spiro[[1,4]oxazino[2,3,4-hi]indole-2,1′-cyclopropan]-6-yl)pyrimidin-2-yl)amino)-2-((2-(dimethylamino)-2-methylpropyl)(methyl)amino)-4-methoxyphenyl)acrylamide] | – | – | – | – | – | – | 355 | 687 | 963 mm^3 | – |
